From PubChem BioAssay AID1645887 (National Center for Advancing Translational Sciences (NCATS), 2021) come the findings set out here.

Several values for one entry are separate records, joined by “and”; a condition that tells them apart may be missing. Identical values can stand only once. In all, about 16,000 compounds went through this assay and about 40 (0.2%) were called active. Roughly 1% stayed inconclusive and do not appear here. The call rests on the fitted dose curve; in most records, active means well fitted activation curve with a large enough effect; inconclusive means small, poorly fitted or top-dose-only effect, or another doubt; inactive means no such curve, though single readings can be large or run the other way. The list shows a part of the results. Starred links: 1 amine or outer side, 2 acyl side, 3 side chain; linkers in the order of their positions; H or OH if unused. Positions of bridges follow the written chain, without caps; N, C: chain ends. Non-standard residues stand in square brackets, D forms with d. Residues, ends and D or L forms follow the SMILES beside them. Chains are numbered I, II in the order given. Actinocin(9to1) = Cc1c2oc3c(C)ccc(C(=O)[*:1])c3nc-2c(C(=O)[*:2])c(N)c1=O; aThr = C[C@H](O)[C@H](N)C(=O)O; NMeV = CN[C@H](C(=O)O)C(C)C; Sar = CNCC(=O)O
On the % scale 0 is the no-effect control and ±100 the full control effect.

The assay deals with Rap guanine nucleotide exchange factor 4 (Homo sapiens) (UniProt Q8WZA2). Put plainly: Validation qHTS for agonist of cAMP-regulated guanine nucleotide exchange factor 4 (EPAC2).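 Further: exchange makes BODIPY-GDP fluorescence drop when released from Rap1B; series mostly up to about 150 µM.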 The note with it: EPAC2 Rap1B BODIPY-GDP exchange, fluorescence; activation: active compounds read high. An outline of the steps: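 Fluorescent exchange assay: 100 nM EPAC2 with 250 nM RAP1B-BODIPY-GDP and 50 uM GDP; compound added, 5 min at room temperature, then read (ex 480/em 540 nm) every 5 min for 30 min. Normalized to 6.5 mM cAMP agonist control.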
Sequence of UniProt Q8WZA2 (Q8WZA2 whole entry, looked up): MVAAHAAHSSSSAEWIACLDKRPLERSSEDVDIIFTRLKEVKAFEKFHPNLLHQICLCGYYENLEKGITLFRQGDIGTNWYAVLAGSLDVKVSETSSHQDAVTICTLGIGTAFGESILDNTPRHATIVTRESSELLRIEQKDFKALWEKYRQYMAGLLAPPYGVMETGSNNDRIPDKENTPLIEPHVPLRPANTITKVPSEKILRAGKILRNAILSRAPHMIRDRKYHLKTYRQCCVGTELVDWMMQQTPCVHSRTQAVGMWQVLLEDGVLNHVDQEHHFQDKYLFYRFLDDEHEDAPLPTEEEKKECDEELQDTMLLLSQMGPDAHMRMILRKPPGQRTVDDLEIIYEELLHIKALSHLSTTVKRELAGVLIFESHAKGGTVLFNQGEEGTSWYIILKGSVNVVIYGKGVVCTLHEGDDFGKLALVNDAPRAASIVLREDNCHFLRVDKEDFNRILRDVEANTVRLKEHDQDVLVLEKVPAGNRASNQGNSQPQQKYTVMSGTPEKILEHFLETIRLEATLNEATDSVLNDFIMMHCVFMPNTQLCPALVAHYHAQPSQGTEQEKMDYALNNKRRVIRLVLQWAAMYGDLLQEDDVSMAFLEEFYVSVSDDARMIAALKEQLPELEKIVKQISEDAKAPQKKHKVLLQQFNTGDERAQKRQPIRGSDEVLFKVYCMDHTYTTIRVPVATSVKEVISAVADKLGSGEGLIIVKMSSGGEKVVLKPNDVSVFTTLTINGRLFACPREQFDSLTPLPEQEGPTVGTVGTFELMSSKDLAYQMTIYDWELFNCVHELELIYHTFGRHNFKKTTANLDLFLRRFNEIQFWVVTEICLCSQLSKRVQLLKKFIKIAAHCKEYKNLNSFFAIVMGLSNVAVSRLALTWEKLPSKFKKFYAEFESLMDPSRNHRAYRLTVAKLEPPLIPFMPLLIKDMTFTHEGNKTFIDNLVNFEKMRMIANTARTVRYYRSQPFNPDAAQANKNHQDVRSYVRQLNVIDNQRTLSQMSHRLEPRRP
As to `O=C(CCCCCCCCC#CI)Oc1ccccc1`, the activation is inactive: 3.41%. The figure for `COc1cc(=O)n2c(c1C(=O)N(C)Cc1nonc1C)CCN(Cc1ccccc1Cl)CC2` is inactive: -11.5%; for `COc1ccc(C(=O)N2CCC3(CC2)CN(Cc2ccc(C#N)cc2)C3)cc1` it is inactive: -2.47%. The figure for `C[C@@H]1CCC(=O)N(C[C@@H](C)CSc2ccc(Br)cc2)CC1` is inactive: -23.5%. The figure for `O=C(CCc1ccc(O)cc1)c1c(O)cc(O)cc1O[C@@H]1O[C@H](CO)[C@@H](O)[C@H](O)[C@H]1O` is inactive: -5.98%. With `CCC1C(=O)NCCN1Cc1ccc2c(c1)CN(Cc1cccn1-c1ccc(Cl)cn1)CCO2` (centres undefined), the activation was inactive: -23.1%. The figure for `CCNc1ncc2nc(-c3ccc(F)cc3)c(=O)n(-c3ccc(OC)cc3)c2n1` is inactive: -7.29%; for `OC(CN1CCCC1)c1ccccc1` (centres undefined) it is inactive: -26.6%; for `O=S1(=O)CCOC[C@H](c2ccccc2)N1Cc1cccc(Cl)c1` it is inactive: -15.2%. The figure for `CC1(C)CCC(=O)N2CC[C@H]3C[C@H](OC(=O)Nc4ccccc4)C[C@@H]1[C@H]32` is inactive: -8.41%. To `COc1ccccc1-c1cc2c(c(OC)c1)OCCN(C(=O)Cn1nc(-c3ccccc3)c3ccccc3c1=O)C2` belongs inactive: -1.72%. As for `C=C[C@@H]1c2cc(C)ccc2N(S(=O)(=O)c2ccc(C)cc2)[C@H](c2ccc(C(=O)OC)cc2)C1(C#N)C#N`, the activation was inactive: -13.2%. To `COc1ccccc1-c1nc(N2CCN(C)CC2)c2ccccc2n1` belongs inactive: -10.3%. To `O=c1cc(-c2ccccc2F)[nH]c2cc3c(cc12)OCO3` belongs inactive: -12.3%; to `O=[N+]([O-])c1ccc(-c2nc(-c3ccc(F)cc3)c(-c3ccncc3)[nH]2)cc1`, inactive: -12.9%; to `COC(=O)c1cccnc1`, inactive: 1.22%. In the case of `CN(C)c1ncc2nc(-c3cc(F)cc(F)c3)c(=O)n(C3CC3)c2n1`, the activation was inactive: 4.62%. To `Cc1ccc(SCCN2CCC(C)CCC2=O)cc1` (centres undefined) belongs inactive: -10.3%; to `Cc1ccccc1-c1cc(N2CCNCC2)ncn1`, inactive: -11.2%; to `CCC(C(=O)OCCOCCN(CC)CC)c1ccccc1` (centres undefined), inactive: 0.955%. To `S=C(S)OC1CC2CC1C1CCCC21` (centres undefined) belongs inactive: -42%; to `CC[N+]1(CC(=O)c2ccc(OC)cc2)CCCCC1`, inactive: -2.07%.

As for `CNCCCC1c2ccccc2C=Cc2ccccc21`, the activation was inactive: -24.5% and inactive: -11.5%.

For the compound `COc1cccc(-c2cncnc2NCc2ccc(OC)cc2OC)c1`, the activation is inactive: -9.1%.

As for `CCNc1ncc2nc(-c3cccs3)c(=O)n(Cc3ccc(F)cc3)c2n1`, the activation is inactive: 10.8%. With `CCOC(=O)C1=C[C@@H](OC(CC)CC)[C@H](NC(C)=O)[C@@H](N)C1`, the activation was inactive: 3.48%. For `O=C(O)CC(O)C(=O)O` (centres undefined), the activation is inactive: -7.55%.

Consider `COc1ccc(CNc2ccnc(-c3ccccc3CN(C)C)n2)c(OC)c1`, for which the activation is inactive: -7.06%. The figure for `Cc1cnc(CNc2nc(-c3ccc(C(=O)N(C)C)cc3)nc3ccccc23)cn1` is inactive: 6.25%; for `O=c1c(-c2cccs2)nc2cnc(Oc3ccccc3)nc2n1-c1ccccc1` it is inactive: 5.26%; for `CCCCCCC[N+](CC)(CC)CCCCc1ccc(Cl)cc1` it is inactive: 0.691%. The figure for `CCNc1ncc2ncc(=O)n(CCOC)c2n1` is inactive: 9.01%; for `CCCCCCCCN1[C@@H](CC(=O)OC)c2cc(C(F)(F)F)ccc2S1(=O)=O` it is inactive: -24.1%; for `COc1ccccc1CNc1cc(-c2ccccc2CN(C)C)ncn1` it is inactive: -0.407%. On to `NCCC(O)C(=O)NC1C[C@@H](N)[C@H](O[C@@H]2OC(CN)C(O)C(O)C2O)C(O)[C@H]1O[C@H]1OC(CO)C(O)C(N)C1O` (some centres undefined), for which the activation is inactive: -0.102%. On to `O=c1cnc2cnc(Oc3ccccc3)nc2n1CCc1ccccc1`, for which the activation is inactive: -13.2%. To `CCC(=O)OC1C2CC3=C4CC(=O)OC(c5ccoc5)[C@]4(C)CCC3[C@@](C)(C2=O)C(CC(=O)OC)C1(C)C` (some centres undefined) belongs inactive: -17.6%; to `C[C@]12CCC(=O)C=C1CC[C@@H]1[C@@H]2[C@@H](O)C[C@@]2(C)[C@H]1CC[C@]2(O)C(=O)CO`, inactive: -26.2%.

Regarding `Cc1cccc2[nH]cc(/C=C3/C=Nc4ccccc43)c12`, the activation is inactive: -18.3%. The figure for `COCC(=O)N1CCC2(CCN(Cc3cc(C(F)(F)F)cc(C(F)(F)F)c3)CC2)CC1` is inactive: -24.5%; for `COc1cccc(-c2cncnc2NCc2cccs2)c1` it is inactive: -19.5%.

Take `O=C(NCCc1cccnc1)c1cnn(-c2ncc3c(n2)-c2ccccc2CC3)c1C1CC1`: the activation is inactive: -7.38%. On to `CCCC(=O)Nc1nc2c(ncn2[C@@H]2O[C@H]3COP(=O)(O)O[C@@H]3[C@@H]2OC(=O)CCC)c(=O)[nH]1`, for which the activation was inactive: -2.88%. Turning to `CCCc1cc(=O)[nH]c(=S)[nH]1`, the activation is inactive: 3.15% and inactive: 3.3%.

For the compound `COc1ccc(C(=O)N2CCC3(CC2)CN(c2ccccn2)C3)cc1`, the activation was inactive: -4.93%. For the compound `Cc1ccc(CN2[C@H]3CCCC[C@@H]3OCCS2(=O)=O)cc1`, the activation was inactive: -16.1%. The figure for `O=S(=O)(N(Cc1ccccc1)[C@H](CO)Cc1ccccc1)N(Cc1ccccc1)[C@H](CO)Cc1ccccc1` is inactive: -1.29%. With `N#CCCn1c(=O)c(-c2ccccc2)nc2cnc(OCc3ccccc3)nc21`, the activation was inactive: -38.8%.

Turning to `Cc1onc(-c2ccccc2)c1-c1ccc(S(N)(=O)=O)cc1`, the activation was inactive: 6.78%. To `O=C(Nc1ccccc1)N1CCCC2(CCN(C(=O)c3cccc(F)c3)CC2)C1` belongs inactive: -19.3%; to `CC1=C(CC(=O)O)c2cc(F)ccc2/C1=C\c1ccc(S(C)=O)cc1` (centres undefined), inactive: -4.44% [middle of 4 runs]; to `O=c1cnc2cnc(N3CCOCC3)nc2n1C1CC1`, inactive: 2.27%. To `CCC(=O)N[C@@H]1c2ccccc2C2(CCN(Cc3ccccn3)CC2)[C@H]1OC` belongs inactive: -10.2%; to `CC(=O)N1CCC2(CCN(Cc3ccc(C#N)cc3)CC2)CC1`, inactive: -4.05%; to `CC[N+]1(CC)CCC(=C(c2ccccc2)c2ccccc2)C1C` (centres undefined), inactive: -9.8%. Turning to `COCC(=O)N1CCC2(CC1)CN(C(c1ccccc1)c1ccccc1)C2`, the activation is inactive: 8.37%. The figure for `Cc1noc(C)c1-c1cncnc1-n1ccnc1` is inactive: -10.3%; for `O=c1cnc2cnc(OCc3ccccc3)nc2n1CCc1ccccc1` it is inactive: 2.27%. `C[C@H](CCC(=O)NCCS(=O)(=O)O)C1CC[C@H]2C3CC[C@@H]4C[C@H](O)CC[C@]4(C)C3C[C@H](O)[C@]12C` (some centres undefined): the activation is inactive: -6.07%. In the case of `CSc1ncccc1C(=O)N1CCc2nnc(C(NC(=O)c3ccoc3)C(C)C)n2CC1` (centres undefined), the activation was inactive: -8.29%. On to `COCCNc1cc(-c2ccccc2C)ncn1`, for which the activation was inactive: -23%. Take `COC(=O)c1c(OCc2ccccn2)cc(=O)n2c1CCN(C(=O)c1n[nH]c3c1CCCC3)CC2`: the activation is inactive: -6.32%. To `CN1CCCC2(CCN(C(=O)c3cc(C(F)(F)F)cc(C(F)(F)F)c3)CC2)C1` belongs inactive: -8.94%; to `COc1ccc(-c2oc3cc(O[C@@H]4OC(CO)C(O)C(O)C4O)c(OC)c(O)c3c(=O)c2OC)cc1O` (some centres undefined), inactive: -19.7%. The figure for `COc1cccc(Nc2ncc3nc(-c4cccs4)c(=O)n(CCC#N)c3n2)c1` is inactive: 6.57%; for `C[C@H]1CC2C3CCC4=CC(=O)C=C[C@]4(C)[C@@]3(Cl)[C@@H](O)C[C@]2(C)[C@@]1(O)C(=O)CO` (some centres undefined) it is inactive: -42.1%.

Take `CC1O[C@@H](O[C@@H]2C(O)C[C@H](O[C@@H]3C(O)C[C@@H](OC4CC[C@@]5(C)C6CC(O)[C@@]7(C)C(C8=CC(=O)OC8)CC[C@@]7(O)C6CC[C@@H]5C4)OC3C)OC2C)CC(O)[C@H]1O` (some centres undefined): the activation is inactive: 4.41%. The figure for `COc1ccc(NC2=Nc3ccccc3N[C@@]23C[C@H]2CCCC(=O)N4CC[C@@H](C3)[C@@H]24)cc1` is inactive: -20.1%; for `C[N+]1(CCCCC[N+]2(C)CCCC2)CCCC1` it is inactive: -8.77% and inactive: -0.0869% and inactive: -7.72%. To `Cc1nc2cncnc2n(Cc2ccc(F)cc2)c1=O` belongs inactive: -7.41%; to `COC(=O)[C@@H]1CCCN1Cc1ccc2c(c1)CN(Cc1cc(OC)c3c(c1)OCO3)CCO2`, inactive: -4.02%; to `CN(C)Cc1ccccc1-c1ccc2ncnc(NCc3ccccc3)c2c1`, inactive: -2.71%. The figure for `CCCN[C@@H]1C(=O)N2C(C(=O)OCCC)=C(C)CS[C@H]12` is inactive: -24.4%; for `CN(Cc1cnc2ccccn12)C(=O)c1cc(NC(=O)c2ccccc2)cc2ncn(C3CCCC3)c12` it is inactive: -4.23%.

`CO/N=C(\C(=O)N[C@@H]1C(=O)N2C(C(=O)OCOC(=O)C(C)(C)C)=C(/C=C\c3scnc3C)CS[C@H]12)c1csc(N)n1`: the activation is inactive: -30.4%. In the case of `COc1ccc(CN2CCOc3ccc(CN4CCC(Oc5cccnc5)CC4)cc3C2)c(F)c1`, the activation was inactive: -10.7%. With `Cc1c2oc3c(C)ccc(C(=O)N[C@@H]4C(=O)N[C@@H](C(C)C)C(=O)N5CCC[C@@H]5C(=O)N(C)CC(=O)N(C)[C@@H](C(C)C)C(=O)O[C@H]4C)c3nc-2c(C(=O)N[C@@H]2C(=O)N[C@@H](C(C)C)C(=O)N3CCC[C@@H]3C(=O)N(C)CC(=O)N(C)[C@@H](C(C)C)C(=O)O[C@H]2C)c(N)c1=O` (I: [aThr]V[dP][Sar][NMeV] / II: [aThr]V[dP][Sar][NMeV]; ester I:1-I:C, II:1-II:C; linker I:N-II:N via Actinocin(9to1)), the activation is inactive: -16.7%.

In the case of `CCCCC(=O)O`, the activation was inactive: 1% and inactive: 4.78%. The figure for `CN(C)c1ccc(/C=C/c2cc(N(C)C)nc3ccccc23)cc1` is inactive: -22.1%.
